Assay results taken from PubChem BioAssay AID720709 (National Center for Advancing Translational Sciences (NCATS), 2013).
Hit rate of the full screen: of about 360,000 compounds, about 520 (0.14%) were called active. The inconclusive results got no clear call from the source; some entries with a clear call stand among them for comparison. Calls follow the shape of the dose curve; as a rule, active = well fitted inhibition curve with a large enough effect; inconclusive = small, poorly fitted or top-dose-only effect; inactive = no such curve, though single readings can be large or run the other way. Potencies of inconclusive entries are left out as doubtful fits.
Also: nearly all actives have a fitted effect of over 50% in size.
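For activity change, negative = inhibition in this document: plate controls were vehicle for no effect and positive control for full effect.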
Potency is read from the fitted curve at half-maximal effect; tags tell the direction and shape of the fitted curve.

The compounds below were run against Rap guanine nucleotide exchange factor 3 (Homo sapiens) (UniProt O95398) (assay: qHTS for Antagonist of cAMP-regulated guanine nucleotide exchange factor 3 (EPAC1): primary screen). Conditions: EPAC1 GEF assay, Rap1b-BODIPY-GDP exchange fluorescence; activity change, negative = inhibition: at 115 µM (top of the series).
UniProt O95398, sequence (O95398 whole entry, looked up): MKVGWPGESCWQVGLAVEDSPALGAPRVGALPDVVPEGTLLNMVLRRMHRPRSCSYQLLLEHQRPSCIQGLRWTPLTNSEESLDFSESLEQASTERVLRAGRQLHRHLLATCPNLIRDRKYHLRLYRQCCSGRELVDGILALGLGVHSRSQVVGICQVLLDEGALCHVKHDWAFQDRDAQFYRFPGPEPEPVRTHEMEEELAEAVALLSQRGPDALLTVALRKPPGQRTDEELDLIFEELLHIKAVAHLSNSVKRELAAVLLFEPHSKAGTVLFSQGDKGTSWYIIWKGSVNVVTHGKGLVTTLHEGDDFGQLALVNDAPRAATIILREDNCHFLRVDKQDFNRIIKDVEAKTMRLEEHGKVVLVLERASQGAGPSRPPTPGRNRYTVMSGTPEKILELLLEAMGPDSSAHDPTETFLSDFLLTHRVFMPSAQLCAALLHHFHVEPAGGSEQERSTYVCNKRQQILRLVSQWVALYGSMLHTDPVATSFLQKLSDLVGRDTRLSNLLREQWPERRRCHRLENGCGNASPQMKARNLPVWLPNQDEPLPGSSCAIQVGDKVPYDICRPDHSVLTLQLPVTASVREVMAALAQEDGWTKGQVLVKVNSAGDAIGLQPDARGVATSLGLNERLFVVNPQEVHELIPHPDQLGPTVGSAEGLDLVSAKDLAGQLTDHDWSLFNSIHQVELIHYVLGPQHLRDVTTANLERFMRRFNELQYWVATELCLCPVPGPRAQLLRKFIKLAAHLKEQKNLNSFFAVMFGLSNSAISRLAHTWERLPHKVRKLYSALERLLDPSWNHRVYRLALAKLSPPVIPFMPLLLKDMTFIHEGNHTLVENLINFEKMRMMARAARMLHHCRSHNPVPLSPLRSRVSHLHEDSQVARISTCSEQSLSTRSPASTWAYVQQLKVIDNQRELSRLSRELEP
O=C1Nc2ccccc2N(C(=O)c2ccc3ccccc3c2)C1c1nc2ccccc2[nH]1 (stereo not drawn) was tested, and the Potency was inconclusive [inhibitor, single point].
Cc1cccc2cc(C#N)c(N3CCOCC3)nc12 was tested, and the “activity change, negative = inhibition” value was inactive: -5.21%.
With COc1ccc(C(=O)Nn2c(SCc3cccc([N+](=O)[O-])c3)nc3ccccc3c2=O)cc1 the Potency was inconclusive [inhibitor, partial curve].
In the case of Cc1ccc(/C=N/NC(=O)c2cccc(S(=O)(=O)Nc3ccccc3Cl)c2)s1, the “activity change, negative = inhibition” value is reported as inactive: -10.8%.
For Cc1cc(C(=O)N2CCCC(N3CCN(Cc4ccc5c(c4)OCO5)CC3)C2)n[nH]1 (stereo not drawn), the Potency was inconclusive [inhibitor, single point].
In the case of Cc1ccc(C(=O)O)cc1-c1ccc(/C=C2\SC(=O)N(CC(=O)Nc3ccccc3)C2=O)o1, the Potency is reported as inconclusive [inhibitor, partial curve].
With CCc1cccc(CC)c1-n1c(SCC(=O)N2CCc3ccccc32)nc(O)cc1=O the Potency was inconclusive [inhibitor, partial curve].
With COc1ccc(/C(O)=C2/C(=O)C(=O)N(Cc3ccco3)C2c2cccs2)cc1 (stereo not drawn) the “activity change, negative = inhibition” value was inactive: -1.41%.
In the case of O=C1NN(c2ccc(Cl)c(Cl)c2)C(=O)/C1=C/c1ccc(-c2ccccc2C(=O)O)o1, the Potency is reported as inconclusive [inhibitor, full curve].
With COc1ccc(C(=O)CN2C3=NCCCN3c3ccccc32)cc1OC the Potency was inconclusive [inhibitor, full curve, poor fit].
For CCOC(=O)c1ccc(NC(=O)c2nc(S(=O)(=O)Cc3ccccc3)ncc2Cl)cc1, the Potency was inconclusive [inhibitor, partial curve].
In the case of CS(=O)(=O)N(Cc1ccc(C(=O)NN=C2CCCCCC2)cc1)c1ccccc1, the Potency is reported as inconclusive [inhibitor, full curve, poor fit].
With CC(OC(=O)c1ccc2c(c1)NC(=O)CS2)C(=O)c1ccc(F)cc1 (stereo not drawn) the Potency was inconclusive [inhibitor, single point].
With Cc1[nH]c2ccccc2c1C(=O)CN1C(=O)C(=O)N(C2CCCC2)C1=O the Potency was inconclusive [inhibitor, single point].
With O=C(CSc1ccc(Cl)cc1)c1ccco1 the Potency was inconclusive [inhibitor, single point].
In the case of Cc1ccc(CC(=O)NNC(=O)c2ccncc2)cc1C, the “activity change, negative = inhibition” value is reported as inactive: 16.8%.
With COc1cc(NC2c3ncccc3C(=O)N2Cc2ccco2)cc(OC)c1 (stereo not drawn) the Potency was inconclusive [inhibitor, single point].
For Cc1ccc(NC2=CC(=O)C(=O)c3ccccc32)c(C)c1, the “activity change, negative = inhibition” value was inactive: -20%.
